Several values for one entry are separate records, joined by “and”; a condition that tells them apart may be missing. Identical values can stand only once. Screen size: about 74,000 compounds; about 1,100 (1.5%) were called active. Inconclusive means that the source gave no clear call. Such entries were picked first, then a sample of the others. The call rests on the fitted dose curve; in most records, active means well fitted inhibition curve with a large enough effect; inconclusive means small, poorly fitted or top-dose-only effect; inactive means no such curve, though single readings can be large or run the other way. A potency beside an inconclusive call is a rough fit, not a confirmed value.
biological target: Polyunsaturated fatty acid lipoxygenase ALOX15 (Homo sapiens) (UniProt P16050); experiment: qHTS Assay for Inhibitors of 15-hLO (15-human lipoxygenase); conditions: purified 15hLO-1, xylenol orange hydroperoxide absorbance; activity change, negative = inhibition: at 57.1 µM (top of the series) unless noted; further: nearly all actives have a fitted effect of over 55% in size
Sequence of UniProt P16050 (P16050 whole entry, looked up): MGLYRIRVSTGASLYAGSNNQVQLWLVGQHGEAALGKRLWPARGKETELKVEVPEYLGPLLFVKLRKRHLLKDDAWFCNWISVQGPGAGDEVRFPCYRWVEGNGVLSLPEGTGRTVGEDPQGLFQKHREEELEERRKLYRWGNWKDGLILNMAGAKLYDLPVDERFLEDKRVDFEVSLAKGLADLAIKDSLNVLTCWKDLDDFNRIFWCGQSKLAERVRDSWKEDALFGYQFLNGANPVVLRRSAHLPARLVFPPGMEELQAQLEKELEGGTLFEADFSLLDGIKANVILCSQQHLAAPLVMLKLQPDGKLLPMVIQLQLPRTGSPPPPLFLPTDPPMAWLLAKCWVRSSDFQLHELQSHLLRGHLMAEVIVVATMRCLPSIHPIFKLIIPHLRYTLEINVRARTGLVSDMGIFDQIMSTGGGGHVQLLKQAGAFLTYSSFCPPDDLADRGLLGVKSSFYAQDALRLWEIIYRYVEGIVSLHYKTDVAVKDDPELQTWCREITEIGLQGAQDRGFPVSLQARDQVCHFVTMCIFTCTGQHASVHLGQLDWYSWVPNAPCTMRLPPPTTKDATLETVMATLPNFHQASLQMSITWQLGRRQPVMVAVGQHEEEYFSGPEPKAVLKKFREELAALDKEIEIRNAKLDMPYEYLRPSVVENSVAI
How it was run: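 Compounds were preincubated 15 min at room temperature with 40 nM purified human enzyme (25 mM Hepes pH 7.5, 0.01% Triton X-100); 50 uM arachidonic acid reacted 6 min. Fe-xylenol orange detection, 30 min, absorbance ratio 573/405 nm.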
On the % scale 0 is the no-effect control and ±100 the full control effect; potency means the concentration at half of the fitted maximal effect; tags describe the fitted curve by direction and shape.

| Compound | Potency | activity change, negative = inhibition |
| --- | --- | --- |
| COc1cccc(S(=O)(=O)Nc2ccc3sc(C)nc3c2)c1 | inconclusive: 31.6 µM [inhibitor, single point] |  |
| COc1cccc(-c2cc(C(=O)N3CCCCCC3)no2)c1 | inactive |  |
| Cn1c(C(=O)NCCCN2CCN(c3cccc(Cl)c3)CC2)cc2c(=O)n(C)c3ccccc3c21 | inconclusive: 3.98 µM [inhibitor, full curve, poor fit] |  |
| CSC1CCCCC1(O)CSc1nc2c(cc1C#N)CCCC2 (stereo not drawn) | inconclusive: 20 µM [inhibitor, single point] |  |
| COc1ccc(CN(CC(=O)NCc2ccco2)C(=O)CCC(=O)Nc2nccs2)cc1 | inconclusive: 7.94 µM [inhibitor, single point] |  |
| O=C(c1ccco1)N1CCC2(CCCN(c3ccccc3)C2)CC1 | inactive |  |
| COc1ccc(NC(=O)CSc2nnc(CNc3ccc(F)cc3)o2)c(OC)c1 | inconclusive: 0.199 µM [inhibitor, partial curve] |  |
| Cc1cc2cc(CN(Cc3ccc4c(c3)OCO4)C(=O)c3ccco3)c(=O)[nH]c2cc1C | inconclusive: 15.8 µM [inhibitor, single point] |  |
| CCCN(CCC)c1nc(NC2CCN(C(=O)OCC)CC2)nc(OC)n1 | active: 31.6 µM |  |
| Cc1cc2c(C)cc(=O)oc2c2c1NCCC2 | inactive |  |
| Cc1ccc(-n2c(N)c(C(=O)N3CCCCC3)sc2=S)cc1 | inconclusive: 25.1 µM [inhibitor, single point] |  |
| COc1cc(C2C(C#N)=C(C)NC3=C2C(=O)c2ccccc23)cc(OC)c1OC (stereo not drawn) | inactive |  |
| COC(=O)c1cc(OC)c(OC)cc1NC(=O)CN1CCCCC1 | inactive |  |
| CC(=O)Nc1c(Cl)n(C(C)=O)c2ccccc12 | inactive |  |
| O=C1C=CC2=C3c4cc(O)c(O)cc4CC3(O)COC2=C1O (stereo not drawn) | inconclusive: 1.58 µM [inhibitor, full curve] and inconclusive: 251 nM [inhibitor, full curve] |  |
| CCc1cc2c(N3CCN(c4nnc(CC)s4)CC3)ncnc2s1 | inconclusive: 39.8 µM [inhibitor, single point] |  |
| COCCN(CCOC)c1nc(C)nc2c1nc(-c1ccccc1)n2CCN(C)C | active: 25.1 µM |  |
| CCOc1ccc(NS(=O)(=O)c2ccc3[nH]cc(C(=O)NC(C)CC)c(=O)c3c2)cc1 (stereo not drawn) | active: 25.1 µM |  |
| N#Cc1c(C(F)(F)F)cc(-c2ccco2)nc1SCc1ccncc1 | inconclusive: 5.01 µM [inhibitor, full curve, poor fit] |  |
| CCCOC(=O)NC(CC)COC(=O)Nc1cccc(C)c1C (stereo not drawn) | inactive |  |
| Clc1ccccc1OCc1nn2c(-c3ccncc3)nnc2s1 | inconclusive: 31.6 µM [inhibitor, single point] |  |
| COc1cccc(C(=O)Nc2cccc(-c3nnc(-c4ccccc4)o3)c2)c1 | inconclusive: 0.126 µM [inhibitor, full curve, poor fit] |  |
| Cc1nc(SCC(=O)N2CCCc3ccccc32)c2oc3ccccc3c2n1 | inconclusive: 12.6 µM [inhibitor, partial curve] |  |

| Compound | Potency | activity change, negative = inhibition |
| --- | --- | --- |
| CN(c1ccccc1C(=O)Nc1ccc2c(c1)OCO2)S(C)(=O)=O | inconclusive: 6.31 µM [inhibitor, single point] |  |
| CC(C)c1ccc(S(=O)(=O)N2CCN(CCC(=O)Nc3ccc(N(C)C)cc3)CC2)cc1 | inconclusive: 39.8 µM [inhibitor, single point] |  |
| COc1ccc(OC)c(CCNC(=O)Cn2sc3nc(C)cc(C)c3c2=O)c1 | inconclusive: 0.1 µM [inhibitor, full curve, poor fit] |  |
| CSc1nc2ccc(NS(=O)(=O)c3ccc4c(c3)OCCO4)cc2s1 | inconclusive: 3.98 µM [inhibitor, full curve] |  |
| Cc1cc(/C=N/n2cnnc2)c(C)n1-c1ccc2ncccc2c1 | inconclusive: 5.01 µM [inhibitor, partial curve] |  |
| CC(=O)c1ccc(NC(=O)c2ccn[nH]2)cc1 | inconclusive: 25.1 µM [inhibitor, single point] |  |
| Cc1ccccc1NC(=O)CSc1nc(Nc2ccccc2)nc(N2CCOCC2)n1 | inconclusive: 20 µM [inhibitor, partial curve] |  |
| CC(C)Cn1c(CN(C)Cc2ccccc2)nc2c1c(=O)n(C)c(=O)n2C | inactive |  |
| Cc1cc(NC(=O)CSc2nnc(-c3ccncc3)n2N)ccc1Br | inconclusive: 39.8 µM [inhibitor, single point] |  |
| N#Cc1cc2c(nc1SCC(O)CS(=O)(=O)Cc1ccccc1)CCCC2 (stereo not drawn) | inconclusive: 31.6 µM [inhibitor, single point] |  |
| C=CCN(C(=O)CN1CCOCC1)c1nc(C)c(-c2ccccc2)s1 | inconclusive: 31.6 µM [inhibitor, single point] |  |
| Cc1ccc(S(=O)(=O)OCC2CN3C(CCC(C)C3c3ccc(Br)cc3)C(=O)O2)cc1 (stereo not drawn) |  | inactive: -1.6% [at 11.4 µM] and inactive: 7.76% [at 11.4 µM] and inactive: -3.41% [at 11.4 µM] |
| Cc1cc(C)n2nc(C(=O)Oc3ccc4c(c3)OCO4)nc2n1 | inconclusive: 39.8 µM [inhibitor, single point] |  |
| COc1ccc(N2CCN(C(=O)CSc3nnnn3-c3ccc4c(c3)OCCO4)CC2)cc1 | inactive |  |
| Cc1cccc2cc3c(nc12)SC(=NCC1CCCO1)N(Cc1ccco1)C3 (stereo not drawn) | active: 10 µM |  |
| Cc1cc(C)c2c(=O)n(CC(=O)N3CCC(Cc4ccccc4)CC3)sc2n1 | inconclusive: 0.0398 µM [inhibitor, full curve] |  |
| c1ccc([C@H](c2cccc3c2ccc2ccccc23)[C@H](c2ccccc2)c2cccc3c2ccc2ccccc23)cc1 |  | inactive: 7.91% [at 11.4 µM] |
| O=C(NCCOc1ccccc1)C1CCCN1C(=O)c1cccs1 (stereo not drawn) | inconclusive: 0.1 µM [inhibitor, partial curve, poor fit] |  |
| CCN(CC)C(=O)CSc1ncnc2c(-c3cccs3)nsc12 | inactive |  |
| CC/C(=C\C(=O)c1ccncc1)Nc1ccc(O)cc1 | inconclusive: 31.6 µM [inhibitor, single point] |  |
| CNc1sc(C(=O)c2cccs2)c(N)c1-c1nc2ccccc2s1 | inconclusive: 3.16 µM [inhibitor, full curve] |  |
| Cc1ccc(NC(=O)C2CCN(S(=O)(=O)c3cccc4cccnc34)CC2)nc1 | inconclusive: 39.8 µM [inhibitor, single point] |  |
| CN(C)/C=C1/Nc2ccccc2C1=O | inconclusive: 15.8 µM [inhibitor, partial curve] |  |

| Compound | Potency | activity change, negative = inhibition |
| --- | --- | --- |
| CSc1ccc(C2C(C#N)=C(N)Oc3c2ccc(=O)c2c(C)oc(C)c32)cc1 (stereo not drawn) | active: 15.8 µM |  |
| c1cncc(-c2nc(N3CCCCCC3)c3ccccc3n2)c1 | inactive |  |
| CC1CCC2C(=O)OC(COc3ccc(C(C)(C)C)cc3)CN2C1c1ccc(Br)cc1 (stereo not drawn) |  | inactive: 3.64% [at 11.4 µM] [middle of 5 runs] |
| Cc1ccc2c(c1)c(C)c(C)n2CC(O)Cn1nnc2ccccc21 (stereo not drawn) | inconclusive: 0.199 µM [inhibitor, full curve] |  |
| Cc1cc2cc(CNC(=O)C3CC3)ccc2n1C | inconclusive: 31.6 µM [inhibitor, single point] |  |
| COc1ccc(-c2cc(=O)c3ccccc3s2)cc1 | inconclusive: 31.6 µM [inhibitor, single point] |  |
| COc1cc(S(=O)(=O)NC2CCCCC2)ccc1Cl | inconclusive: 25.1 µM [inhibitor, partial curve] |  |
| Cc1cc(Nc2ccc(O)cc2)ccc1N | inconclusive: 15.8 µM [inhibitor, full curve] |  |
| CCOC(=O)CSC1=C(C#N)C(c2ccccc2C)C2=C(CCCC2=O)N1 (stereo not drawn) | inconclusive: 25.1 µM [inhibitor, partial curve] |  |
| COc1cc2c(C(=O)NCCCN3CCN(c4cccc(Cl)c4)CC3)cn(C)c(=O)c2cc1OC | inactive |  |
| COc1ccc(C2CC(=O)N3CN(Cc4ccco4)CSC3=C2C#N)cc1 (stereo not drawn) | inconclusive: 7.94 µM [inhibitor, partial curve] |  |
| CCc1ccc(C2C(C#N)=C(N)SC(N)=C2C#N)s1 | active: 10 µM |  |
| C[C@H]1[C@H](C)OC(=O)C[C@H](O)C[C@H](O)C[C@H](O)CC[C@H](O)[C@H](O)CC(=O)C[C@H](O)[C@H](C(=O)O)[C@H](O)C[C@H](O[C@@H]2O[C@@H](C)[C@H](O)[C@@H](N)[C@@H]2O)C=CC=CC=CC=CCCC=CC=C[C@@](C)(O)[C@H]1O | inconclusive: 3.16 µM [inhibitor, partial curve] |  |
| O=c1c2ccccc2nnn1CSc1nnc(Nc2ccccc2)s1 | inactive |  |
| C/C(=N/Nc1nc(C)cc(=O)[nH]1)C(=O)O |  | inactive: 44.6% [at 11.4 µM] |
| N#CC1=C(N)C(C#N)(C#N)[C@H](c2ccsc2)[C@H]2COCC=C12 | inconclusive: 25.1 µM [inhibitor, partial curve] |  |
| Cc1cc2cc(CNC(=O)c3cc4ccccc4o3)ccc2n1C | inconclusive: 3.98 µM [inhibitor, full curve] |  |
| Cc1ccc2c(CC(=O)N3CCc4ccccc43)coc2c1 | inactive |  |
| CC(=O)N1CC=C2C(C#N)=C(N)C(C#N)(C#N)C(CCc3ccccc3)C2C1 (stereo not drawn) | inactive |  |
| CC(=O)Nc1ccc(OC[C@@H](O)CNC(C)C)cc1 | inconclusive: 20 µM [inhibitor, single point] |  |
| Brc1c(CSc2nnc(-c3ccco3)o2)nc2ccccn12 | inactive |  |
| CCCCNc1nc(C)nc2c1nc(-c1ccccc1)n2CCN1CCCCC1 | active: 12.6 µM |  |

— PubChem BioAssay AID887 (National Center for Advancing Translational Sciences (NCATS), 2007)
